Assay results reported in PMC2684588.
Results are given in words; binding and its absence hold for the method and conditions named. For some assays here: In cells and extracts the contact can be indirect. Some binding calls cover weakened binding; strength is not graded here. For some assays here: Sequences can lack the tags named with a protein.

The chains behind the UniProt entries cited, without tags or fusion partners.
UniProt Q9C035: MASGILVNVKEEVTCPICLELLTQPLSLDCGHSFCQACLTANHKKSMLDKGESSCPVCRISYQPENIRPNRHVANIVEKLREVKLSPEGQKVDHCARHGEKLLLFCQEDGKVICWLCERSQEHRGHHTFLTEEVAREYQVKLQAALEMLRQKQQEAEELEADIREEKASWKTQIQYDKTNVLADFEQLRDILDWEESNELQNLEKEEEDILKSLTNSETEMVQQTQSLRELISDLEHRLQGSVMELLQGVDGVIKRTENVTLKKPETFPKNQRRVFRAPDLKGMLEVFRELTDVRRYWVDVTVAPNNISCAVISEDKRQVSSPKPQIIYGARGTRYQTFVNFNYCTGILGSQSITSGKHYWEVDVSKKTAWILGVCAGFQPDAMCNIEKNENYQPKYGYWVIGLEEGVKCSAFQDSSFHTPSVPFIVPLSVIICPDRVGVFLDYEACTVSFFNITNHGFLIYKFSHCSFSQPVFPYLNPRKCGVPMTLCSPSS
UniProt Q14258: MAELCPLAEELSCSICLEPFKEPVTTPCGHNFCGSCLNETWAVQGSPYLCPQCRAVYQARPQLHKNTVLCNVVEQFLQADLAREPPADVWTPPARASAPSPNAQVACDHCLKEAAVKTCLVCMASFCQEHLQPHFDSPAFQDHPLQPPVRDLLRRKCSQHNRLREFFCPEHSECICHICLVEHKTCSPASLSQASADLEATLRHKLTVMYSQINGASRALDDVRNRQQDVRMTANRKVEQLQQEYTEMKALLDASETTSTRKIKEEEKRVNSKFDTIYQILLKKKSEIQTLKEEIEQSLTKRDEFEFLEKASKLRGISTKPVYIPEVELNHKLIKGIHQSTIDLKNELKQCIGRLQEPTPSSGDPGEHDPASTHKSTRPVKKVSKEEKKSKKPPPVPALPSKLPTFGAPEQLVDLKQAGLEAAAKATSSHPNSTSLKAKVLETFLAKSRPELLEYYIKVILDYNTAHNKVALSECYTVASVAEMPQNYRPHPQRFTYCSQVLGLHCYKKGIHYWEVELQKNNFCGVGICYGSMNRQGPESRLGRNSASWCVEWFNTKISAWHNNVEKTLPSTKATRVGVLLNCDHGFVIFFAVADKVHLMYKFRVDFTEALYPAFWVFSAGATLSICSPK

T1: HA-tagged full-length RIG-I (UniProt O95786)
T1 sequence: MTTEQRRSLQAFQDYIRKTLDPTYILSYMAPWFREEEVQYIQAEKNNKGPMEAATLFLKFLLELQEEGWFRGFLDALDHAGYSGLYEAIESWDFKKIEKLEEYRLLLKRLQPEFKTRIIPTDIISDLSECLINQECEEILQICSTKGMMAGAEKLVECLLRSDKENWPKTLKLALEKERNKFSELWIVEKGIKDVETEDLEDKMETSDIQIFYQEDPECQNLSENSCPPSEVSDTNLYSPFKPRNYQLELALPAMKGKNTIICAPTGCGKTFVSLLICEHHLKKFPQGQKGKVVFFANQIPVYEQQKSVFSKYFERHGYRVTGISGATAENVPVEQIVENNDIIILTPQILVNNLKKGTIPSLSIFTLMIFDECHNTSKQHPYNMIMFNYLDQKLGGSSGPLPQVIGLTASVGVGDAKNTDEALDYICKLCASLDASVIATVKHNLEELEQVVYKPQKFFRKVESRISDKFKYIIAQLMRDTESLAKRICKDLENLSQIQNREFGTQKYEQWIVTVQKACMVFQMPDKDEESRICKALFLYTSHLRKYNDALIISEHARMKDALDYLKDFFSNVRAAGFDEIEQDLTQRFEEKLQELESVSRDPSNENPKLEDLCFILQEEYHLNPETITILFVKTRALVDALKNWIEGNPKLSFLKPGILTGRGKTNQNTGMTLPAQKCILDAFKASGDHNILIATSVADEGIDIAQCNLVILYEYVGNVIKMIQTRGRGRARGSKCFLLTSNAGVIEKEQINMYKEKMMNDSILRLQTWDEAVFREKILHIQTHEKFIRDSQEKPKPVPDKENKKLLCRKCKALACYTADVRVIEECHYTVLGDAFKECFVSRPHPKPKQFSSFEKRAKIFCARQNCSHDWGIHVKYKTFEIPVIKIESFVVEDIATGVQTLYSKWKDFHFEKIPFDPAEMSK

T2: RIG-I (retinoic-acid-inducible gene-I), full-length, yeast two-hybrid bait (UniProt O95786)
T2 sequence: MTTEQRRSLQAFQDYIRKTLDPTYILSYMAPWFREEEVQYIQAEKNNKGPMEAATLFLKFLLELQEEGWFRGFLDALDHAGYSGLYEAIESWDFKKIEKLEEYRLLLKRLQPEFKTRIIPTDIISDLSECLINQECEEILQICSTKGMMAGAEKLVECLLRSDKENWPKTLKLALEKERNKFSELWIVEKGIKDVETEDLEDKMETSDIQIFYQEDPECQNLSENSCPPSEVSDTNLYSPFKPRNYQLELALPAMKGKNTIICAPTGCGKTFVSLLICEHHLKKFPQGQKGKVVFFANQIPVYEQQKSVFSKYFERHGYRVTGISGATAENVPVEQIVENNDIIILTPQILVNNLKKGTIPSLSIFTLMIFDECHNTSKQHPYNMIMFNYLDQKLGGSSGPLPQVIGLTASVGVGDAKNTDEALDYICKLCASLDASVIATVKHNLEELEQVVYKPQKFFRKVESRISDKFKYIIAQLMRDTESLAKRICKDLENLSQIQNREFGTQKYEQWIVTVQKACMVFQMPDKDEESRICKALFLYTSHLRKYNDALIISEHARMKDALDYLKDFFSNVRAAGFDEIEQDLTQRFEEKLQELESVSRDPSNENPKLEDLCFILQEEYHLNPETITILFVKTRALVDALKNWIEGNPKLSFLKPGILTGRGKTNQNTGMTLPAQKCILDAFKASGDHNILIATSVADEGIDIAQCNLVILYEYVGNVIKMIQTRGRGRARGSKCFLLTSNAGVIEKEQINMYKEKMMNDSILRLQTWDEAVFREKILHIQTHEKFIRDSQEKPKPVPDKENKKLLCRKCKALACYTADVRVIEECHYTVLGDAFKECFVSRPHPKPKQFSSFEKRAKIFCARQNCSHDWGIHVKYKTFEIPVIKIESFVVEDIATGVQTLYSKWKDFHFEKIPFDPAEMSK

T3: Flag-tagged full-length REUL (human) (UniProt Q8IUD6)
T3 sequence: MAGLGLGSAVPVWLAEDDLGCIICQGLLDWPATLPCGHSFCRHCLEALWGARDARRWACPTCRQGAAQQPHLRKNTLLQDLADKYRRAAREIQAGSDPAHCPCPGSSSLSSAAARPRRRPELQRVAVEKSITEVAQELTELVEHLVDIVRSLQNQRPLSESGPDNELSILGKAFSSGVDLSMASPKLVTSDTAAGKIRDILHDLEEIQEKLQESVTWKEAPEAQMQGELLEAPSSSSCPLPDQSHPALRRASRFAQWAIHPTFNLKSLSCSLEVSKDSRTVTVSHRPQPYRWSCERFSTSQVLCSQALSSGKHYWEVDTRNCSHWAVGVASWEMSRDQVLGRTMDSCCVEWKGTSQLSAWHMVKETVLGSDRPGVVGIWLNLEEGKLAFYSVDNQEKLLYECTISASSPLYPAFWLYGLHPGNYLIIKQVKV


Key:
[1] = target: T1, HA-tagged full-length RIG-I; test: co-IP; HEK293/HEK293T cells co-transfected with Flag- and HA-tagged plasmids; lysis buffer 20 mM Tris pH 7.5, 150 mM NaCl, 1% Triton X-100, 1 mM EDTA; IP with anti-Flag, anti-HA or mouse IgG and protein-A sepharose for 2 h; Western blot
Flag-tagged TRIM5-α = Flag-tagged TRIM5-α (UniProt Q9C035); test: as above
[2] = target: T2, RIG-I (retinoic-acid-inducible gene-I), full-length, yeast two-hybrid bait; test: two-hybrid; yeast two-hybrid screen of a human fetal kidney cDNA library (Clontech) with full-length RIG-I as bait; β-galactosidase-positive clones
[3] = target: Flag-tagged TRIM25 (tripartite motif 25) (UniProt Q14258); test: co-IP; HEK293/HEK293T cells co-transfected with Flag- and HA-tagged plasmids; lysis buffer 20 mM Tris pH 7.5, 150 mM NaCl, 1% Triton X-100, 1 mM EDTA; IP with anti-Flag, anti-HA or mouse IgG and protein-A sepharose for 2 h; Western blot
[4] = target: T3, Flag-tagged full-length REUL (human); test: as above

Row | binding [1] | binding (Flag-tagged TRIM5-α) | Binder | other results
1 | binds |  | Flag-tagged full-length REUL (protein, UniProt Q8IUD6-1 1-432) MAGLGLGSAVPVWLAEDDLGCIICQGLLDWPATLPCGHSFCRHCLEALWGARDARRWACPTCRQGAAQQPHLRKNTLLQDLADKYRRAAREIQAGSDPAHCPCPGSSSLSSAAARPRRRPELQRVAVEKSITEVAQELTELVEHLVDIVRSLQNQRPLSESGPDNELSILGKAFSSGVDLSMASPKLVTSDTAAGKIRDILHDLEEIQEKLQESVTWKEAPEAQMQGELLEAPSSSSCPLPDQSHPALRRASRFAQWAIHPTFNLKSLSCSLEVSKDSRTVTVSHRPQPYRWSCERFSTSQVLCSQALSSGKHYWEVDTRNCSHWAVGVASWEMSRDQVLGRTMDSCCVEWKGTSQLSAWHMVKETVLGSDRPGVVGIWLNLEEGKLAFYSVDNQEKLLYECTISASSPLYPAFWLYGLHPGNYLIIKQVKV | 
2 | binds |  | Flag-REUL deletion mutant 91-432 (REULΔRING) (domain or fragment, UniProt Q8IUD6-1 91-432) EIQAGSDPAHCPCPGSSSLSSAAARPRRRPELQRVAVEKSITEVAQELTELVEHLVDIVRSLQNQRPLSESGPDNELSILGKAFSSGVDLSMASPKLVTSDTAAGKIRDILHDLEEIQEKLQESVTWKEAPEAQMQGELLEAPSSSSCPLPDQSHPALRRASRFAQWAIHPTFNLKSLSCSLEVSKDSRTVTVSHRPQPYRWSCERFSTSQVLCSQALSSGKHYWEVDTRNCSHWAVGVASWEMSRDQVLGRTMDSCCVEWKGTSQLSAWHMVKETVLGSDRPGVVGIWLNLEEGKLAFYSVDNQEKLLYECTISASSPLYPAFWLYGLHPGNYLIIKQVKV | 
3 | no binding |  | Flag-REUL mutant carrying the RING-finger and the middle region (1-214) (domain or fragment, UniProt Q8IUD6-1 1-214) MAGLGLGSAVPVWLAEDDLGCIICQGLLDWPATLPCGHSFCRHCLEALWGARDARRWACPTCRQGAAQQPHLRKNTLLQDLADKYRRAAREIQAGSDPAHCPCPGSSSLSSAAARPRRRPELQRVAVEKSITEVAQELTELVEHLVDIVRSLQNQRPLSESGPDNELSILGKAFSSGVDLSMASPKLVTSDTAAGKIRDILHDLEEIQEKLQES | 
4 |  | no binding | HA-tagged full-length RIG-I (protein, UniProt O95786 1-925) MTTEQRRSLQAFQDYIRKTLDPTYILSYMAPWFREEEVQYIQAEKNNKGPMEAATLFLKFLLELQEEGWFRGFLDALDHAGYSGLYEAIESWDFKKIEKLEEYRLLLKRLQPEFKTRIIPTDIISDLSECLINQECEEILQICSTKGMMAGAEKLVECLLRSDKENWPKTLKLALEKERNKFSELWIVEKGIKDVETEDLEDKMETSDIQIFYQEDPECQNLSENSCPPSEVSDTNLYSPFKPRNYQLELALPAMKGKNTIICAPTGCGKTFVSLLICEHHLKKFPQGQKGKVVFFANQIPVYEQQKSVFSKYFERHGYRVTGISGATAENVPVEQIVENNDIIILTPQILVNNLKKGTIPSLSIFTLMIFDECHNTSKQHPYNMIMFNYLDQKLGGSSGPLPQVIGLTASVGVGDAKNTDEALDYICKLCASLDASVIATVKHNLEELEQVVYKPQKFFRKVESRISDKFKYIIAQLMRDTESLAKRICKDLENLSQIQNREFGTQKYEQWIVTVQKACMVFQMPDKDEESRICKALFLYTSHLRKYNDALIISEHARMKDALDYLKDFFSNVRAAGFDEIEQDLTQRFEEKLQELESVSRDPSNENPKLEDLCFILQEEYHLNPETITILFVKTRALVDALKNWIEGNPKLSFLKPGILTGRGKTNQNTGMTLPAQKCILDAFKASGDHNILIATSVADEGIDIAQCNLVILYEYVGNVIKMIQTRGRGRARGSKCFLLTSNAGVIEKEQINMYKEKMMNDSILRLQTWDEAVFREKILHIQTHEKFIRDSQEKPKPVPDKENKKLLCRKCKALACYTADVRVIEECHYTVLGDAFKECFVSRPHPKPKQFSSFEKRAKIFCARQNCSHDWGIHVKYKTFEIPVIKIESFVVEDIATGVQTLYSKWKDFHFEKIPFDPAEMSK | 
5 | binds |  | Flag-REUL deletion mutant 215-432 (PRY and SPRY domains) (domain or fragment, UniProt Q8IUD6-1 215-432) VTWKEAPEAQMQGELLEAPSSSSCPLPDQSHPALRRASRFAQWAIHPTFNLKSLSCSLEVSKDSRTVTVSHRPQPYRWSCERFSTSQVLCSQALSSGKHYWEVDTRNCSHWAVGVASWEMSRDQVLGRTMDSCCVEWKGTSQLSAWHMVKETVLGSDRPGVVGIWLNLEEGKLAFYSVDNQEKLLYECTISASSPLYPAFWLYGLHPGNYLIIKQVKV | 
6 |  |  | REUL (RNF135) C-terminal region Aa 125-432, yeast two-hybrid library clone (domain or fragment, UniProt Q8IUD6-1 125-432) VAVEKSITEVAQELTELVEHLVDIVRSLQNQRPLSESGPDNELSILGKAFSSGVDLSMASPKLVTSDTAAGKIRDILHDLEEIQEKLQESVTWKEAPEAQMQGELLEAPSSSSCPLPDQSHPALRRASRFAQWAIHPTFNLKSLSCSLEVSKDSRTVTVSHRPQPYRWSCERFSTSQVLCSQALSSGKHYWEVDTRNCSHWAVGVASWEMSRDQVLGRTMDSCCVEWKGTSQLSAWHMVKETVLGSDRPGVVGIWLNLEEGKLAFYSVDNQEKLLYECTISASSPLYPAFWLYGLHPGNYLIIKQVKV | binding [2]: binds
7 |  | no binding | HA-RIG-I mutant carrying the N terminal CARD domain (1-218) (domain or fragment, UniProt O95786 1-218) MTTEQRRSLQAFQDYIRKTLDPTYILSYMAPWFREEEVQYIQAEKNNKGPMEAATLFLKFLLELQEEGWFRGFLDALDHAGYSGLYEAIESWDFKKIEKLEEYRLLLKRLQPEFKTRIIPTDIISDLSECLINQECEEILQICSTKGMMAGAEKLVECLLRSDKENWPKTLKLALEKERNKFSELWIVEKGIKDVETEDLEDKMETSDIQIFYQEDPE | binding [3]: binds; binding [4]: binds
8 | no binding |  | Flag-REUL middle region mutant (91-214) (domain or fragment, UniProt Q8IUD6-1 91-214) EIQAGSDPAHCPCPGSSSLSSAAARPRRRPELQRVAVEKSITEVAQELTELVEHLVDIVRSLQNQRPLSESGPDNELSILGKAFSSGVDLSMASPKLVTSDTAAGKIRDILHDLEEIQEKLQES | 
9 |  | no binding | HA-RIG-I mutant carrying the DexD/H-box helicase domain (219-925), RIG-IΔCARD (domain or fragment, UniProt O95786 219-925) CQNLSENSCPPSEVSDTNLYSPFKPRNYQLELALPAMKGKNTIICAPTGCGKTFVSLLICEHHLKKFPQGQKGKVVFFANQIPVYEQQKSVFSKYFERHGYRVTGISGATAENVPVEQIVENNDIIILTPQILVNNLKKGTIPSLSIFTLMIFDECHNTSKQHPYNMIMFNYLDQKLGGSSGPLPQVIGLTASVGVGDAKNTDEALDYICKLCASLDASVIATVKHNLEELEQVVYKPQKFFRKVESRISDKFKYIIAQLMRDTESLAKRICKDLENLSQIQNREFGTQKYEQWIVTVQKACMVFQMPDKDEESRICKALFLYTSHLRKYNDALIISEHARMKDALDYLKDFFSNVRAAGFDEIEQDLTQRFEEKLQELESVSRDPSNENPKLEDLCFILQEEYHLNPETITILFVKTRALVDALKNWIEGNPKLSFLKPGILTGRGKTNQNTGMTLPAQKCILDAFKASGDHNILIATSVADEGIDIAQCNLVILYEYVGNVIKMIQTRGRGRARGSKCFLLTSNAGVIEKEQINMYKEKMMNDSILRLQTWDEAVFREKILHIQTHEKFIRDSQEKPKPVPDKENKKLLCRKCKALACYTADVRVIEECHYTVLGDAFKECFVSRPHPKPKQFSSFEKRAKIFCARQNCSHDWGIHVKYKTFEIPVIKIESFVVEDIATGVQTLYSKWKDFHFEKIPFDPAEMSK | binding [3]: binds; binding [4]: binds
10 | no binding |  | Flag-REUL RING-finger domain mutant (1-90) (domain or fragment, UniProt Q8IUD6-1 1-90) MAGLGLGSAVPVWLAEDDLGCIICQGLLDWPATLPCGHSFCRHCLEALWGARDARRWACPTCRQGAAQQPHLRKNTLLQDLADKYRRAAR | 
